According to PubChem BioAssay AID1768 (National Center for Advancing Translational Sciences (NCATS), 2009):
Several values for one entry are separate records, joined by “and”; a condition that tells them apart may be missing. Identical values can stand only once. In all, about 270,000 compounds went through this assay and about 620 (0.23%) were called active. This list was built around the results that the source calls inconclusive (neither active nor inactive); the mix of calls is not that of the screen. The call rests on the fitted dose curve; in most records, active means well fitted inhibition curve with a large enough effect in the polarisation, with a control signal flat (not every such curve was filed as active); inconclusive means small, poorly fitted or top-dose-only effect, or effect the other way, or a change in a side signal; inactive means no such curve, though single readings can be large or run the other way; the % refers to the polarisation. A potency beside an inconclusive call is a rough fit, not a confirmed value. “Side channel” marks fits to a control or component signal instead of the main read-out.

Molecular target: Menin (Homo sapiens) (UniProt O00255)
UniProt O00255, sequence (O00255 whole entry, looked up): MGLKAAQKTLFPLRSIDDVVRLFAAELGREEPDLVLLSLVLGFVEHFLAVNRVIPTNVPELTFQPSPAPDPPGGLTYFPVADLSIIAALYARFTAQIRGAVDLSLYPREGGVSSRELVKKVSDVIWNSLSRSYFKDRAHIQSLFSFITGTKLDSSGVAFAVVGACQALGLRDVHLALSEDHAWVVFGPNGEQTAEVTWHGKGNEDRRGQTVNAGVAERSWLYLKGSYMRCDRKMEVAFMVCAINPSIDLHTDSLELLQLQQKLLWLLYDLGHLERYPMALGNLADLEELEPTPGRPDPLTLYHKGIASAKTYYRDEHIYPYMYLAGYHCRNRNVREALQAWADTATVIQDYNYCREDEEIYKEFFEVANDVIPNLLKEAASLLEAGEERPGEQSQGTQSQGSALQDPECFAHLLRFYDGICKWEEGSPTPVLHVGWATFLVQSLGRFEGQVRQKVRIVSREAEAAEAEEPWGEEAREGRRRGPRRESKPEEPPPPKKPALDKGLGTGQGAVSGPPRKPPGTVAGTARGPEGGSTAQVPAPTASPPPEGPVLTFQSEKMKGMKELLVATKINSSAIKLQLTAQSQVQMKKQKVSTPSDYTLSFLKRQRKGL
Assay: qHTS Assay for Inhibitors Targeting the Menin-MLL Interaction in MLL Related Leukemias: Competition With Texas Red Labeled MLL-derived Mutant Peptide; on FP activity change, negative = inhibition: % of control where 0% means no effect
Conditions: fluorescence polarization; FP activity change, negative = inhibition: at 61.6 µM (top of the series)
Potency means the concentration at half of the fitted maximal effect; tags describe the fitted curve by direction and shape or compound fluorescence and quenching.

Potency, inconclusive:
CCOc1ccc(/C=N/Nc2ccc(C(F)(F)F)cc2[N+](=O)[O-])cc1O 7.94 µM [quencher, side channel, full curve]
N/C(=N\N=C/c1ccc(Br)cc1)N/N=C\c1ccc(Br)cc1 31.6 µM [fluorescent, side channel, single point]
O=C1c2ccccc2NC(c2c(Cl)cccc2Cl)N1Cc1ccccc1 (stereo not given) 39.8 µM [inhibitor, single point]
O=C(COC(=O)c1ccccc1C(=O)c1ccccc1)Nc1cccc([N+](=O)[O-])c1 35.5 µM [quencher, side channel, single point]
CC1CC(C)CN(CC(=O)NC(c2ccccc2)c2ccccc2)C1 (stereo not given) 7.08 µM [fluorescent, side channel, full curve]
CC1CCN(CC(O)Cn2c3ccccc3c3ccccc32)CC1 (stereo not given) 10 µM [inhibitor, partial curve, poor fit]
COc1ccc(C2c3c(oc4ccccc4c3=O)C(=O)N2Cc2ccncc2)cc1 (stereo not given) 22.4 µM [inhibitor, partial curve, poor fit]
O=C1Nc2ccc(I)cc2/C1=C/c1cc(Br)c(O)c(Br)c1 35.5 µM [quencher, side channel, partial curve] and 14.1 µM [quencher, side channel, partial curve]
COc1ccc(OC)c(-n2c(=S)[nH]c3c(sc(=S)n3-c3ccccc3C)c2=O)c1 28.2 µM [inhibitor, single point]
COc1ccc(NC(=S)NC(=O)c2csnn2)cc1 17.8 µM [quencher, side channel, single point]
O=C(NCCc1cccc(Cl)c1)c1ccc(Cl)c([N+](=O)[O-])c1 22.4 µM [quencher, side channel, single point]
O=C(NCc1ccc(F)cc1)c1ccc(S(=O)(=O)Nc2cccc(C(F)(F)F)c2)cc1 22.4 µM [quencher, side channel, partial curve]
Cc1ccc(NC(=O)Cc2nnc(SCC(=O)Nc3nncs3)n2C)cc1 39.8 µM [inhibitor, single point]
CC(/C=C/c1ccc(N(C)C)cc1)=N\N=C(/N)SC1CC(=O)N(c2ccc(C(=O)O)cc2)C1=O (stereo not given) 3.16 µM [quencher, side channel, full curve]

FP activity change, negative = inhibition, inactive:
CC(=O)Nc1cc(C(C)(C)C)c(O)c(C(C)(C)C)c1 3.13%
